The supplement of paper PMC8728848
Some of the results follow.

Columns and labels:
Test in all cases: glycan array binding signal (z-score within array); higher = stronger binding
Details in all cases: glycan notation: IUPAC condensed, linker removed
[1] = target: Man(a1-2)Man(a1-3)[Man(a1-2)Man(a1-6)]Man
Method in brief: (§1)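 The binding signal is a Z-score computed within each array and averaged over linkers. Arrays of the same protein sequence at different concentrations or buffers were also averaged together. Data originate from 3228 arrays in the Consortium for Functional Glycomics database, kept only where the protein sequence was available.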

[2] = target: Man(a1-2)Man(a1-3)[Man(a1-2)Man(a1-6)]Man(a1-6)[Man(a1-2)Man(a1-2)Man(a1-3)]Man
Method in brief: as §1

[3] = target: Man(a1-2)Man(a1-3)[Man(a1-2)Man(a1-6)]Man(a1-6)[Man(a1-2)Man(a1-2)Man(a1-3)]Man(b1-4)GlcNAc(b1-4)GlcNAc
Method in brief: as §1

[4] = target: Man(a1-2)Man(a1-3)[Man(a1-6)]Man(a1-6)[Man(a1-2)Man(a1-3)]Man(b1-4)GlcNAc(b1-4)GlcNAc
Method in brief: as §1

[5] = target: Man(a1-2)Man(a1-6)[Man(a1-3)]Man(a1-6)[Man(a1-2)Man(a1-2)Man(a1-3)]Man
Method in brief: as §1

[6] = target: Man(a1-2)Man(a1-6)[Man(a1-3)]Man(a1-6)[Man(a1-2)Man(a1-2)Man(a1-3)]Man(b1-4)GlcNAc(b1-4)GlcNAc
Method in brief: as §1

Man(a1-3)[Man(a1-6)]Man = target: Man(a1-3)[Man(a1-6)]Man
Method in brief: as §1

[7] = target: Man(a1-3)[Man(a1-6)]Man(a1-6)[Man(a1-2)Man(a1-3)]Man(b1-4)GlcNAc(b1-4)GlcNAc
Method in brief: as §1

[8] = target: Man(a1-3)[Man(a1-6)]Man(a1-6)[Man(a1-3)]Man
Method in brief: as §1

[9] = target: Man(a1-3)[Man(a1-6)]Man(a1-6)[Man(a1-3)]Man(b1-4)GlcNAc(b1-4)GlcNAc
Method in brief: as §1

[10] = target: Man(a1-3)[Man(a1-6)]Man(b1-4)GlcNAc(b1-4)GlcNAc
Method in brief: as §1

Man(a1-6)Man = target: Man(a1-6)Man
Method in brief: as §1

Man(b1-4)GlcNAc = target: Man(b1-4)GlcNAc
Method in brief: as §1

Neu5Ac(a2-3)Gal = target: Neu5Ac(a2-3)Gal
Method in brief: as §1

[11] = target: Neu5Ac(a2-3)Gal(b1-3)GalNAc
Method in brief: as §1

[12] = target: Neu5Ac(a2-3)Gal(b1-3)GalNAc(b1-3)Gal(a1-4)Gal(b1-4)Glc
Method in brief: as §1

[13] = target: Neu5Ac(a2-3)Gal(b1-3)GalNAc(b1-3)Gal(b1-4)GlcNAc
Method in brief: as §1

[14] = target: Neu5Ac(a2-3)Gal(b1-3)GalNAc(b1-4)[Neu5Ac(a2-3)]Gal(b1-4)Glc
Method in brief: as §1

[15] = target: Neu5Ac(a2-3)Gal(b1-3)GalNAc6S
Method in brief: as §1

[16] = target: Neu5Ac(a2-3)Gal(b1-3)GlcNAc
Method in brief: as §1

[17] = target: Neu5Ac(a2-3)Gal(b1-3)GlcNAc(b1-3)Gal(b1-3)GlcNAc
Method in brief: as §1

[18] = target: Neu5Ac(a2-3)Gal(b1-3)GlcNAc6S
Method in brief: as §1

[19] = target: Neu5Ac(a2-3)Gal(b1-3)[Fuc(a1-4)]GlcNAc
Method in brief: as §1

B1: P-Selectin (Homo sapiens), P16109 (protein)
chain: MANCQIAILYQRFQRVVFGISQLLCFSALISELTNQKEVAAWTYHYSTKAYSWNISRKYCQNRYTDLVAIQNKNEIDYLNKVLPYYSSYYWIGIRKNNKTWTWVGTKKALTNEAENWADNEPNNKRNNEDCVEIYIKSPSAPGKWNDEHCLKKKHALCYTASCQDMSCSKQGECLETIGNYTCSCYPGFYGPECEYVRECGELELPQHVLMNCSHPLGNFSFNSQCSFHCTDGYQVNGPSKLECLASGIWTNKPPQCLAAQCPPLKIPERGNMTCLHSAKAFQHQSSCSFSCEEGFALVGPEVVQCTASGVWTAPAPVCKAVQCQHLEAPSEGTMDCVHPLTAFAYGSSCKFECQPGYRVRGLDMLRCIDSGHWSAPLPTCEAISCEPLESPVHGSMDCSPSLRAFQYDTNCSFRCAEGFMLRGADIVRCDNLGQWTAPAPVCQALQCQDLPVPNEARVNCSHPFGAFRYQSVCSFTCNEGLLLVGASVLQCLATGNWNSVPPECQAIPCTPLLSPQNGTMTCVQPLGSSSYKSTCQFICDEGYSLSGPERLDCTRSGRWTDSPPMCEAIKCPELFAPEQGSLDCSDTRGEFNVGSTCHFSCDNGFKLEGPNNVECTTSGRWSATPPTCKGIASLPTPGLQCPALTTPGQGTMYCRHHPGTFGFNTTCYFGCNAGFTLIGDSTLSCRPSGQWTAVTPACRAVKCSELHVNKPIAMNCSNLWGNFSYGSICSFHCLEGQLLNGSAQTACQENGHWSTTVPTCQAGPLTIQEASTSITAYKSEGESAEFSFPLNLGEESLQGELRWKAEKAPSSQSWITFSLKNQKVSVQKSTSNPKFQLSETLPLTLQIPQVSLQFAGSGNLTLTLDRGILYQEVNLVVMKVTQPDSNTLTCEVMGPTSPKMRLILKQENQEARVSRQEKVIQVQAPEAGVWQCLLSEGEEVKMDSKIQVLSKGLNSGGGSGGGTGGGDLAPQMLRELQETNAALQDVRELLRQQVKEITFLKNTVMECDACGLDRNLPPLAPLGPHPETLVKVKDAEDQLGARVGYIELDLNSGKILESFRPEERFPMMSTFKVLLCGAVLSRIDAGQEQLGRRIHYSQNDLVEYSPVTEKHLTDGMTVRELCSAAITMSDNTAANLLLTTIGGPKELTAFLHNMGDHVTRLDRWEPELNEAIPNDERDTTMPVAMATTLRKLLTGELLTLASRQQLIDWMEADKVAGPLLRSALPAGWFIADKSGAGERGSRGIIAALGPDGKPSRIVVIYTTGSQATMDERNRQIAEIGASLIKHWGPDYKDHDGDYKDHDIDYKDDDDKGPHHHHHH
- glycan array binding signal (z-score) [1]: -0.217
- glycan array binding signal (z-score) [2]: -0.181
- glycan array binding signal (z-score) [3]: 0.187
- glycan array binding signal (z-score) [4]: -0.335
- glycan array binding signal (z-score) [5]: 0.316
- glycan array binding signal (z-score) [6]: -0.061
- glycan array binding signal (z-score) (Man(a1-3)[Man(a1-6)]Man): -0.361
- glycan array binding signal (z-score) [7]: 0.11
- glycan array binding signal (z-score) [8]: -0.205
- glycan array binding signal (z-score) [9]: -0.052
- glycan array binding signal (z-score) [10]: 0.332
- glycan array binding signal (z-score) (Man(a1-6)Man): -0.32
- glycan array binding signal (z-score) (Man(b1-4)GlcNAc): -0.214
- glycan array binding signal (z-score) (Neu5Ac(a2-3)Gal): -0.169
- glycan array binding signal (z-score) [11]: -0.268
- glycan array binding signal (z-score) [12]: -0.258
- glycan array binding signal (z-score) [13]: -0.166
- glycan array binding signal (z-score) [14]: -0.144
- glycan array binding signal (z-score) [15]: 0.282
- glycan array binding signal (z-score) [16]: -0.331
- glycan array binding signal (z-score) [17]: -0.128
- glycan array binding signal (z-score) [18]: 0.215
- glycan array binding signal (z-score) [19]: 6.36
